Reference: patent publication US9096585B2 (Icahn School of Medicine at Mount Sinai, priority 2010, dated 2015)
Marks after values point to notes of the source that are not given here.

Legend:
[1] = test system: influenza A virus; assay: microbe, parasite or virus in culture; settings: determined by HA assay, Table 3; for Inhibition of FluA: A549
[2] = test system: influenza A/WSN/33 virus; assay: Plaque-reduction assays with influenza A/WSN/33 virus in cell lines of different species, with or without pyrimidine supplements; settings: 10 μM A3; 10-fold excess base; seen only in MDCK cells and not in A549 cells
[3] = test system: IFN-13 and other antiviral genes (ISG56, IRF7, RIG-I, and TNF-α); assay: Quantitative RT-PCR of IFN and antiviral genes in A549 cells
[4] = test system: influenza B/Yamagata/88 virus; assay: Influenza B virus replication in A549 cells; format: cell-based; settings: concentration of 11.2 μM, compared with influenza A virus

COc1ccc(-c2nnc(SCC(=O)N3CCCC3)o2)cc1 [Compound A3-8, 2-(5-(4-methoxyphenyl)-1,3,4-oxadiazol-2-ylthio)-1-(pyrrolidin-1-yl)ethanone]
Inhibition of FluA [1]: none **

O=C(CSc1nnc(-c2cccnc2)o1)N1CCCC1 [Compound A3-11, 2-(5-(pyridin-3-yl)-1,3,4-oxadiazol-2-ylthio)-1-(pyrrolidin-1-yl)ethanone]
Inhibition of FluA [1]: none **

Cc1[nH]c2ccc(-c3nnc(SCC(=O)N4CCCC4)o3)cc2c1C [Compound A3]
effect of uracil on the inhibitory effect of A3 [2]: reverse the inhibitory effect | induction of IFN-13 and other antiviral genes (ISG56, IRF7, RIG-I, and TNF-α) [3]: no induction

CN(c1nc(-c2ccccc2)cs1)C1CCS(=O)(=O)C1 (stereo not drawn) [Compound A35-2]
Inhibition of FluA [1]: none **

Nc1nc(-c2ccc(Cl)cc2)cs1 [Compound A35-3]
Inhibition of FluA [1]: none **

CN(C)c1nc(-c2ccc(Br)cc2)cs1 [Compound A35-5]
Inhibition of FluA [1]: ~65% ** | IC50 ([1]; Influenza A virus, A549, read-out: IC50 (A549), A549): 12.3 µM

CN(c1nc(-c2ccc(Br)cc2)cs1)C1CCS(=O)(=O)C1 (stereo not drawn) [Compound A35]
inhibition of influenza B virus [4]: less significant inhibition
